Laboratory results as given in PubChem BioAssay AID686979 (National Center for Advancing Translational Sciences (NCATS), 2013).
Out of some 420,000 compounds screened, about 50,000 (12%) were called active. This list was built around the results that the source calls inconclusive (neither active nor inactive); the mix of calls is not that of the screen. Calls follow the shape of the dose curve; as a rule, active = well fitted inhibition curve with a large enough effect; inconclusive = small, poorly fitted or top-dose-only effect; inactive = flat fitted curve, though single readings scatter. No potency is given beside an inconclusive call; the fits are too rough.

assay: qHTS for Inhibitors of human tyrosyl-DNA phosphodiesterase 1 (TDP1): qHTS in cells in presence of CPT; conditions: chicken DT40 Tdp1-/-;hTDP1 cells + 20 nM CPT, ATP luminescence, 48 h; activity change, negative = growth inhibition: at 46.2 µM (top of the series) unless noted; also: nearly all actives have a fitted effect of over 55% in size
How it was run: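 Chicken DT40 Tdp1-/- cells complemented with human TDP1, 400 cells/well, exposed to compounds plus 20 nM camptothecin for at least 48 h at 37 C; viability read as ATP content by CellTiter-Glo luminescence.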
% is scaled to controls: 0 for no effect and ±100 for the full control effect; potency is read from the fitted curve at half-maximal effect; tags tell the direction and shape of the fitted curve.

SMILES | Potency | activity change, negative = growth inhibition
CCCCN(C)CC(O)Cn1cc(/C=C/C(=O)c2ccc(Br)cc2)c2ccccc21 (configuration not stated) | active: 6.51 µM | –
CC(=O)c1cccc(NC(=O)c2sc(-n3nc(C)c(Cc4ccccc4)c3C)nc2C)c1 | inconclusive [inhibitor, partial curve] | –
NC(=O)c1ccc[n+](CC(=O)OCCC23CC4CC(CC(C4)C2)C3)c1 | inactive | –
Cc1onc(-c2ccccc2)c1C(=O)N/N=C/c1ccccc1OC(C)C | inactive | –
Cc1ccc(C(C(=O)NC2CCCC2)N(C(=O)c2csnn2)C2CCCC2)o1 (configuration not stated) | inconclusive [inhibitor, single point] | –
CC1CCCC(C)N1C(=O)COC(=O)Cc1c[nH]c2ccccc12 (configuration not stated) | inactive | –
CCCN(CCC)C(=S)NC(=O)c1ccc(Cl)cc1Cl | active: 18.4 µM | –
O=C(CSc1ccc2c(c1)OCCO2)Nc1ccc(Br)cc1 | inactive | –
CCOC(=O)CSc1nc2ccccc2c(=O)n1CCCCCC(=O)NCc1ccco1 | inconclusive [inhibitor, single point] | –
CCC(=O)c1ccc(OCC(=O)N2CCN(S(=O)(=O)c3ccc(Cl)s3)CC2)cc1 | inconclusive [inhibitor, single point] | –
O=C(Cn1c(SCc2ccc(F)cc2)nc2cccnc21)Nc1ccccc1F | inconclusive [inhibitor, single point] | –
COCCNC(=O)c1ccc2c(c1)N(Cc1cc(C)ccc1C)C(=O)c1ccccc1S2=O (configuration not stated) | – | inconclusive: -30.9% [inhibitor]
Cc1cc(-n2c(C)cc(C(=O)CSc3nncn3C(C)C)c2C)no1 | inconclusive [inhibitor, single point] | –
Cc1ccc(C(=O)COc2ccccc2N2C(=O)c3ccccc3C2=O)cc1 | inactive | –
O=C(Nc1nnc(-c2ccccc2Cl)o1)c1ccc(S(=O)(=O)N2CCCCCC2)cc1 | active: 4.61 µM | –
O=C(Nc1nc2c(s1)CCCC2)c1cc2n(n1)C(C(F)(F)F)CC(C1CC1)N2 (configuration not stated) | inactive | –
CCN(C(=O)CSc1nc2ccc([N+](=O)[O-])cc2s1)C1CCS(=O)(=O)C1 (configuration not stated) | inactive | –
Nc1ccn([C@@H]2O[C@H](C(=O)N3CCN(Cc4ccccn4)CC3)[C@@H](O)[C@H]2O)c(=O)n1 | inactive | –
CC(/C=C\C=C\c1ccccc1)=N\NC(=O)c1cncc(Br)c1 | active: 7.31 µM | –
O=C(CSc1nnc(CCCN2C(=O)c3cccc4cccc(c34)C2=O)n1-c1ccccc1)NCCCN1CCOCC1 | inactive | –
Cc1ccc2c(CNC3CCCCC3)c(C(=O)O)n(Cc3ccc(F)cc3)c2c1 | inactive | –
COc1cccc2cc(-c3nc(-c4ccccc4F)no3)c(=O)oc12 | inactive | –
